From article PMC4336329 (PLoS ONE, 2015)
About 14,000 (4.5%) of roughly 310,000 compounds showed an effect of 50% or more. The effect is printed as a negative number. Some of the results follow.
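Note: peak tail current of the secondary pulse compared with the same well before compound.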

The molecules below were run against human ether-à-go-go-related gene (hERG) potassium channel (human, UniProt Q12809) (assay: primary screen, population patch clamp on CHO cells stably expressing hERG).
human ether-à-go-go-related gene (hERG) potassium channel, sequence (Q12809 whole entry, looked up): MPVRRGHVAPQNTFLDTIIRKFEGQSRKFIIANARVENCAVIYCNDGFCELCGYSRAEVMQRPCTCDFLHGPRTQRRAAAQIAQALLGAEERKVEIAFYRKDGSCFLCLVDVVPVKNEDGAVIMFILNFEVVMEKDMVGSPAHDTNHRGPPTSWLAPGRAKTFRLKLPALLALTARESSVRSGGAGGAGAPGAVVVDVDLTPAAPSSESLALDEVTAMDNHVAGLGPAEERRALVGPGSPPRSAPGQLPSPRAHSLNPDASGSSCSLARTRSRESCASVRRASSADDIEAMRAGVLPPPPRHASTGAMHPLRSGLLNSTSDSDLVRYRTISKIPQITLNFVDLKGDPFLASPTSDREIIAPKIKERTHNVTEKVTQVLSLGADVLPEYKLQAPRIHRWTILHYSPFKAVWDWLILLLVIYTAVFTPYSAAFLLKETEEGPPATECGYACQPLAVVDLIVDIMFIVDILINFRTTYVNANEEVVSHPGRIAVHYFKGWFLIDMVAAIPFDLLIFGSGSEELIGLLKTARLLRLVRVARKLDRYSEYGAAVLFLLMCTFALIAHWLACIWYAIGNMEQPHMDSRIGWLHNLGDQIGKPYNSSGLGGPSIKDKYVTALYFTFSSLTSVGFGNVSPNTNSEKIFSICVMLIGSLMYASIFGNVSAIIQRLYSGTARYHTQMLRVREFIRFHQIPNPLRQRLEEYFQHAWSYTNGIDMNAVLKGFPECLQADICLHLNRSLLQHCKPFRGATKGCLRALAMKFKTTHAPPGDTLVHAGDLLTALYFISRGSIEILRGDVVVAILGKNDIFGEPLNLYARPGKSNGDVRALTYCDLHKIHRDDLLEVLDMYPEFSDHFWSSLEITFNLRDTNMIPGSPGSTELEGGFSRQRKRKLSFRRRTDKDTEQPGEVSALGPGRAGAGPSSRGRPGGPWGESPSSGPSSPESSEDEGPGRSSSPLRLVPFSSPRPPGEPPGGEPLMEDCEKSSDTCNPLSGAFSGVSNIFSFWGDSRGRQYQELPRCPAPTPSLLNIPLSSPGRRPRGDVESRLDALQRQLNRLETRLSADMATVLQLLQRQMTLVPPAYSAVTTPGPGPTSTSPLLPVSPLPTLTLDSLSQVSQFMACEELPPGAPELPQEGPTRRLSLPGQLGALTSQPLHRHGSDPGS
In the case of `COc1ccc(NC(=O)CS(=O)c2cccc(C(F)(F)F)c2)cc1` (stereo not shown), the “hERG current change (%, negative = inhibition) at 10uM” value is reported as 29.8%. `COc1ccc(CC(=O)Oc2ccc(C(C)C)cc2)cc1S(=O)(=O)N1CCOCC1` was tested, and the “hERG current change (%, negative = inhibition) at 10uM” value was 18.8%. In the case of `Cc1c(Br)cc(C(=O)N2CCCCCC2)c(C)c1C`, the “hERG current change (%, negative = inhibition) at 10uM” value is reported as -38.2%. `CCCCCCCN=CC1=C(O)CC(c2ccccc2)CC1=O` (stereo not shown) was tested, and the “hERG current change (%, negative = inhibition) at 10uM” value was -6.52%. With `C[C@H](NC(=O)OC(C)(C)C)C(=O)NCC1CCC(C(=O)O)CC1` (stereo partly shown) the “hERG current change (%, negative = inhibition) at 10uM” value was -4.8%. In the case of `O=C(/C=C/c1ccccc1)Nc1nnc(SCC(=O)c2ccc3ccccc3c2)s1`, the “hERG current change (%, negative = inhibition) at 10uM” value is reported as 4.75%. In the case of `Cc1ccc(C2CC2c2n[nH]c(=S)n2-c2ccc(Cl)cc2)cc1` (stereo not shown), the “hERG current change (%, negative = inhibition) at 10uM” value is reported as 5.54%. In the case of `Cc1nc2sc3c(c2c(=O)n1/N=C/c1ccco1)CCCC3`, the “hERG current change (%, negative = inhibition) at 10uM” value is reported as 16.8%. For `O=C(CC1CCS(=O)(=O)C1)Nc1ccc[nH]c1=O` (stereo not shown), the “hERG current change (%, negative = inhibition) at 10uM” value was 2.85%. In the case of `COc1cc(/C=N/NC(=O)c2cc3c(ccc4ccccc43)o2)cc(OC)c1O`, the “hERG current change (%, negative = inhibition) at 10uM” value is reported as 17.3%. For `COc1cc(NC(=O)CSc2nc3ccccc3n2-c2ccccc2)c(C)cc1[N+](=O)[O-]`, the “hERG current change (%, negative = inhibition) at 10uM” value was 5.58%. In the case of `CC(Sc1nncs1)C(=O)Nc1ccc2c(c1)OCO2` (stereo not shown), the “hERG current change (%, negative = inhibition) at 10uM” value is reported as 17.4%. With `N#CCNC(=O)c1cccn1-c1ncc(C(F)(F)F)cc1Cl` the “hERG current change (%, negative = inhibition) at 10uM” value was 5.01%. `O=C1C(Cc2ccc(O)cc2)NC(=S)N1Cc1ccccc1` (stereo not shown) was tested, and the “hERG current change (%, negative = inhibition) at 10uM” value was -7.58%. With `Cc1ccc(-c2noc(-c3ccccc3C(=O)N3CCOCC3)n2)cc1` the “hERG current change (%, negative = inhibition) at 10uM” value was -12.2%. With `O=C(Nc1ccccc1F)c1ccccc1-c1ccccc1` the “hERG current change (%, negative = inhibition) at 10uM” value was -11.7%. In the case of `CCC(C(=O)Nc1ccc2c(c1)OCCO2)n1c(=O)[nH]c2ccccc2c1=O` (stereo not shown), the “hERG current change (%, negative = inhibition) at 10uM” value is reported as 16%. `C/C(=N\O)C1(C)N(O)C(C)(C)C(c2ccc(F)cc2)=[N+]1[O-]` (stereo not shown) was tested, and the “hERG current change (%, negative = inhibition) at 10uM” value was 10.3%. With `COc1ccc(Nc2nc(-c3cccnc3)nc3ccccc23)cn1` the “hERG current change (%, negative = inhibition) at 10uM” value was -1.74%. With `CCCN(CCC)CCNC(=O)C1c2ccccc2C(=O)N(CCOC)C1c1ccc(F)cc1` (stereo not shown) the “hERG current change (%, negative = inhibition) at 10uM” value was -4.45%. In the case of `CCOC(=O)C(=CNc1ccc(C(F)(F)F)cc1)C(=O)OCC`, the “hERG current change (%, negative = inhibition) at 10uM” value is reported as 10.7%. With `Cc1ccc(C(C)(C)NC(=O)C2CCC(=O)N(C3CCCCCC3)C2)cc1` (stereo not shown) the “hERG current change (%, negative = inhibition) at 10uM” value was 16.6%. With `Cc1ncc(CO)c2c1Oc1nc(-c3ccccc3)nc(SCC(=O)N3CCCCC3)c1C2` the “hERG current change (%, negative = inhibition) at 10uM” value was 18.5%. In the case of `COc1ccc(NS(=O)(=O)c2cc(C(=O)Nc3ccccc3C(=O)O)ccc2C)cc1`, the “hERG current change (%, negative = inhibition) at 10uM” value is reported as 13%. `CC1(C)CC2CC(C)(CN2S(=O)(=O)c2ccc(F)cc2F)C1` (stereo not shown) was tested, and the “hERG current change (%, negative = inhibition) at 10uM” value was -11.8%. For `C/C(=N\NC(=S)NCCc1ccccc1)c1ccc(O)cc1O`, the “hERG current change (%, negative = inhibition) at 10uM” value was 18.1%. For `COc1ccc2c(c1OC)C(=O)O[C@H]2[C@@H]1c2cc3c(cc2CCN1C)OCO3`, the “hERG current change (%, negative = inhibition) at 10uM” value was 3.16%. For `S=C(NCCN(C1CCCCC1)C1CCCC1)Nc1cccc(Cl)c1`, the “hERG current change (%, negative = inhibition) at 10uM” value was -71.3%. In the case of `COc1ccccc1C(=O)Nc1ccc2c(c1)nc1n2CCSC1`, the “hERG current change (%, negative = inhibition) at 10uM” value is reported as -7.51%. With `COc1ccc(N=C(N(C)C)P(=O)(N(C)C)N(C)C)cc1` the “hERG current change (%, negative = inhibition) at 10uM” value was -2.08%. For `Cc1ccc2oc(=O)c3cnn(CC(=O)N4CCCCC4C)c3c2c1` (stereo not shown), the “hERG current change (%, negative = inhibition) at 10uM” value was -30.3%. `COc1ccccc1NC(=O)CSc1nnc(Cc2ccccc2)o1` was tested, and the “hERG current change (%, negative = inhibition) at 10uM” value was -5.65%. `CC(=O)c1ccc(NC(=O)CSc2nc3nc(C)cc(C)n3n2)cc1` was tested, and the “hERG current change (%, negative = inhibition) at 10uM” value was -3.94%. In the case of `Cc1cc(/C=N/NC(=O)c2ccsc2)c(C)n1-c1cnccn1`, the “hERG current change (%, negative = inhibition) at 10uM” value is reported as 20.1%. In the case of `COC(=O)COc1cccc2c(=O)n(CC(=O)NCc3ccccc3)ccc12`, the “hERG current change (%, negative = inhibition) at 10uM” value is reported as -6.25%. For `CN(CCNC(=O)c1cc2c(=O)n(C)c3ccccc3c2n1C)Cc1ccccc1`, the “hERG current change (%, negative = inhibition) at 10uM” value was -17.8%. For `c1ccc(-c2nnc(N3CCOCC3)nc2-c2ccccc2)cc1`, the “hERG current change (%, negative = inhibition) at 10uM” value was -1.68%. For `O=C(NCC(=O)N(Cc1cccs1)C(C(=O)NC1CCCCC1)c1ccncc1)c1ccco1` (stereo not shown), the “hERG current change (%, negative = inhibition) at 10uM” value was -15%. In the case of `COc1ccc(S(=O)(=O)NCC(=O)Nc2ccc3c(c2)OCCO3)cc1OC`, the “hERG current change (%, negative = inhibition) at 10uM” value is reported as 4.55%. For `COC(=O)N1N=C(c2ccc(Br)cc2)CC1(O)C(F)(F)F` (stereo not shown), the “hERG current change (%, negative = inhibition) at 10uM” value was -1.71%. In the case of `COc1ccc(OC)c(NC(=O)Cn2cnc3c(cnn3-c3ccccc3)c2=O)c1`, the “hERG current change (%, negative = inhibition) at 10uM” value is reported as -12.8%. With `O=C(Nc1ccccc1Oc1cccnc1)C1CCCN(C/C=C/c2ccccc2)C1` (stereo not shown) the “hERG current change (%, negative = inhibition) at 10uM” value was -76.9%. For `Cc1ccc(S(=O)(=O)/N=C2/NC(=O)/C(=C\c3cc(Br)cc(Br)c3O)S2)cc1`, the “hERG current change (%, negative = inhibition) at 10uM” value was 10%.
